Hit rate of the full screen: of about 94,000 compounds, about 4,000 (4.3%) were called active. This list was built around the results that the source calls inconclusive (neither active nor inactive); the mix of calls is not that of the screen. Calls come from the whole dose curve; as a rule, active = well fitted inhibition curve with a large enough effect; inconclusive = small, poorly fitted or top-dose-only effect; inactive = no such curve, though single readings can be large or run the other way. Potencies beside an inconclusive call are fits to weak or partial responses and may not hold up.
assay: Cytotoxic Profiling in NIH 3T3 Cell Line of Diverse Libraries Using Quantitative High-Throughput Screening; details: NIH 3T3 viability, CellTiter-Glo ATP luminescence, 48-72 h; series mostly up to 96.7 µM; note: nearly all actives have a fitted effect of over 55% in size
Procedure, shortened: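 Cytotoxicity is measured as loss of cellular ATP: NIH 3T3 cells (400/well) are exposed to compound for 48 or 72 hr at 37 °C, then CellTiter-Glo luminescence is imaged after 10 min at room temperature.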
Potency is the fitted concentration of half-maximal effect; tags give direction and shape of the fitted curve.

Q: With `CC(C)c1noc(-c2cccn3c(CNC(=O)c4ccccn4)nnc23)n1` as the compound, how does the Potency read?
A: inactive

Q: Which Potency does the source give for `CCC(=O)N1C[C@@H](Oc2ccccc2)C[C@@H]1C(=O)NCCOC` here?
A: inactive

Q: For `CN(Cc1ccc(F)cc1)Cc1cn(-c2ccccc2)nn1`, which Potency is on record?
A: inactive

Q: Which Potency does the source give for `COc1ccc(-c2noc(-c3nc(C(C)C)no3)n2)cc1OC` here?
A: inactive

Q: With `CN(Cc1ccccc1)Cc1nc2c(n1Cc1ccccc1)C(=O)N(CC1CC1)CCN2` as the compound, how does the Potency read?
A: inconclusive: 89.1 µM [inhibitor, partial curve, poor fit]

Q: Which Potency does the source give for `O=C(NC[C@@H]1C[C@H](F)CN1)c1ccc(-c2cn(-c3ccccc3)cn2)cc1` here?
A: inconclusive: 50.1 µM [inhibitor, partial curve, poor fit]

Q: For `CCn1ccc(C(=O)N2CC=C([C@H]3[C@@H](OC)C(=O)N3Cc3ccc(OC)cc3)CC2)n1`, which Potency is on record?
A: inactive

Q: With `COc1ccc(NC(=O)Cn2c(N(C)Cc3ccccc3)nc(C)cc2=O)cc1Cl` as the compound, how does the Potency read?
A: inconclusive: 35.5 µM [inhibitor, partial curve, poor fit]

Q: With `CN(C(=O)c1cc(-c2ccccc2C(F)(F)F)nc2c1cnn2C)c1ccccc1` as the compound, how does the Potency read?
A: inconclusive: 50.1 µM [inhibitor, partial curve, poor fit]

Q: With `COCCCNC(=O)N1CCCC(c2[nH]ccc2C(N)=O)C1` (stereo unspecified) as the compound, how does the Potency read?
A: inactive

Q: For `CO[C@H]1C(=O)N(C(C)C)[C@H]1C1CCN(C(=O)c2ccc(Cn3nc(C)cc3C)o2)CC1`, which Potency is on record?
A: inactive

Q: For `COc1ccc2c(c1)C(CNc1ccc(C)c([S+](=O)([O-])N3CCOCC3)c1)=CC(C)(C)CO2`, which Potency is on record?
A: inactive

Q: For `COC(=O)[C@H](Cc1ccc(OC)cc1)NC(=O)[C@H]1CN(C(=O)Nc2ccccc2)CCN1S(C)(=O)=O`, which Potency is on record?
A: inactive

Q: Which Potency does the source give for `CCC1(O)CCCN(C(=O)c2coc(COc3ccc4ccc(OC)cc4c3)n2)C1` (stereo unspecified) here?
A: inconclusive: 39.8 µM [inhibitor, partial curve, poor fit]

Q: With `O=[N+]([O-])c1cccc(-c2noc([C@@H]3C[C@@H](O)CN3Cc3cccnc3)n2)c1` as the compound, how does the Potency read?
A: inconclusive: 56.2 µM [inhibitor, partial curve, poor fit]

Q: Which Potency does the source give for `COCc1cn(C[C@H]2C[C@@H](NC(=O)c3ccccc3)[C@H](O)[C@@H]2O)nn1` here?
A: inactive

Q: With `COC(=O)c1ccc2nc(C[C@@H]3C[C@@H](C(C)C)[C@H](CNC(=O)c4cccnc4)C=C3C)[nH]c2c1` as the compound, how does the Potency read?
A: inconclusive: 44.7 µM [inhibitor, partial curve, poor fit]

Q: Which Potency does the source give for `O=C(c1ccc(Cl)cc1)N1CCC(n2cc(-c3cccc(F)c3)[nH]c2=O)CC1` here?
A: inactive

Q: For `CCOc1cc(C)c(CN2CCC3(C2)CN(C)C(=O)O3)cc1C(C)C` (stereo unspecified), which Potency is on record?
A: inconclusive: 39.8 µM [inhibitor, full curve]

Q: Which Potency does the source give for `CN(Cc1ccccc1)Cc1nc2c(n1Cc1ccccc1)C(=O)N(Cc1cccc(Cl)c1)CCN2` here?
A: inconclusive: 44.7 µM [inhibitor, partial curve, poor fit]

Q: Which Potency does the source give for `Cc1cn2nc(C(=O)N3CCCC3)cc2c(N(C)Cc2ccccc2)n1` here?
A: inconclusive: 11.2 µM [inhibitor, full curve, poor fit]

Q: Which Potency does the source give for `COc1cccc(C(=O)N2CCCC2C(=O)N2CCC(N3Cc4cccn4C3=O)CC2)c1` (stereo unspecified) here?
A: inconclusive: 79.4 µM [inhibitor, partial curve, poor fit]

Q: With `CC(C)c1cc(C(=O)NCc2cccnc2Oc2ccc(F)cc2F)on1` as the compound, how does the Potency read?
A: inconclusive: 50.1 µM [inhibitor, partial curve, poor fit]

Q: With `CC(=O)N1CCN(C(=O)C2CCCCN2Cc2ccc(-c3ccsc3)cc2)CC1` (stereo unspecified) as the compound, how does the Potency read?
A: inactive

Q: Which Potency does the source give for `CN(C)c1cccc(-c2cc3c(cn2)CN(Cc2cccnc2)CCN3)c1` here?
A: inconclusive: 22.4 µM [inhibitor, full curve]

Q: For `Cc1ccc(-c2cccc(CN3CCCC3C(=O)NCC3CC3)c2)cc1Cl` (stereo unspecified), which Potency is on record?
A: inconclusive: 44.7 µM [inhibitor, partial curve, poor fit]

Q: Which Potency does the source give for `Cc1ccc(CNC(=O)CC2Sc3ncccc3N(C)C2=O)cc1` (stereo unspecified) here?
A: inactive

Q: For `COC1CCC(C(=O)N2CCc3c(n(Cc4cccnc4)n(-c4ccccc4)c3=O)C2)CC1` (stereo unspecified), which Potency is on record?
A: inconclusive: 56.2 µM [inhibitor, partial curve, poor fit]

Q: For `c1cc2cc(Nc3cnc4ccc(N5CCOCC5)nn34)ccc2[nH]1`, which Potency is on record?
A: inconclusive: 100 µM [inhibitor, single point]

Q: With `c1cncc(COC2CCN(c3ncncn3)CC2)c1` as the compound, how does the Potency read?
A: inactive

Q: With `CC(C)NC(=O)[C@@H](C)C1CC[C@@]2(C)CC[C@H](NC(=O)c3ccncc3)[C@@H](C)[C@@H]2[C@H]1O` (stereo partly specified) as the compound, how does the Potency read?
A: inactive

Q: For `COC(=O)NC1CCN(c2nc3ncccc3o2)C1` (stereo unspecified), which Potency is on record?
A: inactive

Q: With `CCCn1cc2c3c(cccc31)CN(C(=O)c1cccc(C#N)c1)CC2` as the compound, how does the Potency read?
A: inconclusive: 50.1 µM [inhibitor, partial curve, poor fit]

Q: Which Potency does the source give for `COc1ccc(CNC(=O)c2nc(-c3ccccc3OC)cc3c2ccn3C)cc1OC` here?
A: inactive

Q: With `COC(=O)N1CCc2nc(C(C)C)nc(-c3ccc(OC)cc3)c2CC1` as the compound, how does the Potency read?
A: inactive

Q: With `O=C(c1cnccn1)N1CCCC(n2cc(-c3nc(-c4ccccc4)no3)nn2)C1` (stereo unspecified) as the compound, how does the Potency read?
A: inactive

Q: For `COCC1CN(C)CC12CCN(C(=O)Cc1ccc(OC)c(Cl)c1)CC2` (stereo unspecified), which Potency is on record?
A: inactive

Q: For `CC(C)c1noc(-c2cccn3c(CNC(=O)c4cc5ccccc5[nH]4)nnc23)n1`, which Potency is on record?
A: inconclusive: 35.5 µM [inhibitor, partial curve, poor fit]

Q: With `Cc1ccsc1[C@@H]1CCN(C(=O)c2ccc(-n3cnnn3)cc2)C[C@H]1O` as the compound, how does the Potency read?
A: inconclusive: 89.1 µM [inhibitor, single point]

Q: Which Potency does the source give for `CCOC(=O)C1CCCN(C(=O)Cc2ccc(N(Cc3cccc(C)c3)C(=O)c3ccco3)cc2)C1` (stereo unspecified) here?
A: inconclusive: 50.1 µM [inhibitor, partial curve, poor fit]

Q: Which Potency does the source give for `CCCN(CC1CCOC1)C(=O)Nc1ccccc1` (stereo unspecified) here?
A: inactive

Q: Which Potency does the source give for `CNCc1ccccc1-c1ccccc1` here?
A: inactive

Q: For `COc1ccc(OC)c(CN2CCC3(CC2)COCCN3C(=O)OCc2ccccc2)c1`, which Potency is on record?
A: inconclusive: 50.1 µM [inhibitor, partial curve, poor fit]

Q: With `COc1ccc(C(=O)NCC2(COc3ccccc3)C[C@@H](O)[C@@H](O)C2)cc1` (stereo partly specified) as the compound, how does the Potency read?
A: active: 44.7 µM

Q: With `O=C1NCCCCCN(C(=O)CCC2CCCC2)[C@H]2CCC[C@@H]12` as the compound, how does the Potency read?
A: inactive

Q: Which Potency does the source give for `O=C(CC1CCOCC1)N1CCN(Cc2ccccc2F)CC1` here?
A: inactive

Q: With `COc1ccc(OC)c(CN2CC[C@@H]3OCC(=O)N(c4ccccc4)[C@H]3CC2)c1` as the compound, how does the Potency read?
A: inconclusive: 100 µM [inhibitor, partial curve, poor fit]

Q: Which Potency does the source give for `O=C(Cc1cccc(F)c1)N1CCC(N2C(=O)C3(CCCCC3)C2c2ccccc2)CC1` (stereo unspecified) here?
A: inconclusive: 50.1 µM [inhibitor, partial curve, poor fit]

Q: Which Potency does the source give for `O=C(Cc1c[nH]c2ncc(-c3cccnc3)cc12)NC1CC1` here?
A: active: 70.8 µM

Q: With `CN(Cc1ccccc1)Cc1cn([C@H]2CO[C@H]3[C@@H]2OC[C@@H]3NS(=O)(=O)Cc2ccccc2)nn1` as the compound, how does the Potency read?
A: inconclusive: 79.4 µM [inhibitor, partial curve, poor fit]

Q: Which Potency does the source give for `Cc1cnc(C(=O)N[C@@H]2CCC[C@@H]2C(=O)NCCN2CCOCC2)cn1` here?
A: inactive

Q: With `Cc1ccc(-n2nc(-c3c(C)nc4scc(CC(=O)NCc5ccccc5)n4c3=O)cc2C)cc1` as the compound, how does the Potency read?
A: inconclusive: 35.5 µM [inhibitor, partial curve]

Q: With `Cn1ncc2c(C(=O)NCc3ccc(F)cc3)cc(-c3ccc(Cl)nc3)nc21` as the compound, how does the Potency read?
A: inconclusive: 50.1 µM [inhibitor, partial curve, poor fit]

Q: For `Cc1noc(-c2ccn3c(CNC(=O)c4cccc5[nH]ccc45)nnc3c2)n1`, which Potency is on record?
A: inconclusive: 50.1 µM [inhibitor, partial curve, poor fit]

Q: Which Potency does the source give for `O=C(NC[C@H]1O[C@@H](CO)[C@@H](O)[C@H]1N1CCN(c2ccccn2)CC1)Nc1ccc(F)cc1F` here?
A: inconclusive: 56.2 µM [inhibitor, partial curve, poor fit]

Q: With `Cc1cc(C(=O)N2CCC3(CCCNC3=O)C2)ccc1N1CCOCC1` (stereo unspecified) as the compound, how does the Potency read?
A: inconclusive: 89.1 µM [inhibitor, single point]

Q: With `COCc1cn(C[C@H]2C[C@@H](NC(=O)c3cnccn3)[C@H](O)[C@@H]2O)nn1` as the compound, how does the Potency read?
A: inconclusive: 100 µM [inhibitor, partial curve, poor fit]

Q: Which Potency does the source give for `O=C(CC1CCCC1)Nc1ccc2ncnc(N3CCCCC3)c2c1` here?
A: inconclusive: 44.7 µM [inhibitor, partial curve, poor fit]

Q: With `Cc1ccc(C2Cn3nnc(C(=O)N4CCC(C(=O)NCCc5cccs5)CC4)c3CO2)cc1` (stereo unspecified) as the compound, how does the Potency read?
A: inactive

Q: For `C=CCN(C)C(=O)CC1COc2ccc(C(=O)N(C)C)cc2N1C` (stereo unspecified), which Potency is on record?
A: inactive

Q: With `COc1ccc(-c2cccc(C(=O)NCC3CC3)c2)nn1` as the compound, how does the Potency read?
A: inconclusive: 89.1 µM [inhibitor, partial curve, poor fit]

Q: With `COc1ccc(Cc2ncc3c(n2)CN(C(=O)c2cc(C)c(C)cc2C)C3)cc1` as the compound, how does the Potency read?
A: inconclusive: 31.6 µM [inhibitor, partial curve, poor fit]

Q: Which Potency does the source give for `CN1C[C@@H](NC(=O)c2ccccn2)C[C@H]1c1nc(-c2ccc(OC(F)(F)F)cc2)no1` here?
A: inconclusive: 100 µM [inhibitor, partial curve, poor fit]

Q: For `Cc1ccc(C2=NC3(CCN(C(=O)c4ccco4)CC3)ON2)cc1`, which Potency is on record?
A: inactive

Q: For `COc1ccc(NC(=O)c2ccc3c(c2)NC(C)(COc2ccc4[nH]ccc4c2)CO3)cn1` (stereo unspecified), which Potency is on record?
A: inconclusive: 50.1 µM [inhibitor, partial curve, poor fit]

Q: With `N[C@@H]1CC[C@H](C(=O)N2CCC(Oc3cccc(C(F)(F)F)c3)CC2)C1` as the compound, how does the Potency read?
A: inconclusive: 50.1 µM [inhibitor, partial curve, poor fit]

— PubChem BioAssay AID1345082 (National Center for Advancing Translational Sciences (NCATS), 2018)
